For 195 variants, enrichment ratio results are on record in a collection of fitness landscapes (doi:10.1126/science.1257360).

Some of the results follow. Bounds are passed on as bounds.

B1: PhoQ; a variant is named by its letters at X, in order, P23837 (parent)
chain: MKKLLRLFFPLSLRVRFLLATAAVVLVLSLAYGMVALIGYSVSFDKTTFRLLRGESNLFYTLAKWENNKLHVELPENIDKQSPTMTLIYDENGQLLWAQRDVPWLMKMIQPDWLKSNGFHEIEADVNDTSLLLSGDHSIQQQLQEVREDDDDAEMTHSVAVNVYPATSRMPKLTIVVVDTIPVELKSSYMVWSWFIYVLSANLLLVIPLLWVAAWWSLRPIEALAKEVRELEEHNRELLNPATTRELTSLVRNLNRLLKSERERYDKYRTTLTDLTHSLKTPLXXLQXXLRSLRSEKMSVSDAEPVMLEQISRISQQIGYYLHRASMRGGTLLSRELHPVAPLLDNLTSALNKVYQRKGVNISLDISPEISFVGEQNDFVEVMGNVLDNACKYCLEFVEISARQTDEHLYIVVEDDGPGIPLSKREVIFDRGQRVDTLRPGQGVGLAVAREITEQYEGKIVAGESMLGGARMEVIFGRQHSAPKDE

The variants in this test derive from B1. The test is described as follows: enrichment ratio after two sorts for PhoP signalling (ratio (wild type AVST 3.29)); higher = more functional. Particulars: with PhoP (E. coli).
Consider QFYP, for which the enrichment ratio is not above 0.25. In the case of PYAT it was not above 0.25; in that of EDII, not above 0.25. In the case of ASST it was 6.26; in that of IGVR, not above 0.25.

For ECGK, the enrichment ratio was not above 0.25.

With SDWV, the enrichment ratio is not above 0.25. The same measure for KNDF: not above 0.25; for MQKI: not above 0.25; for FFPQ: not above 0.25. In the case of MQVV it was not above 0.25; in that of VGQK, not above 0.25. Turning to FCNN, the enrichment ratio is not above 0.25.

As to GFTQ, the enrichment ratio is not above 0.25. In the case of LYVK it was not above 0.25; in that of KIHK, not above 0.25; in that of SDPC, not above 0.25. In the case of DNPC it was not above 0.25.

In the case of EAVP, the enrichment ratio was not above 0.25.

For GITH, the enrichment ratio was not above 0.25.

For TPKH, the enrichment ratio was not above 0.25. HEEY: the enrichment ratio was not above 0.25. Turning to IASI, the enrichment ratio was not above 0.25. As to WKCE, the enrichment ratio is not above 0.25. The same measure for MAAG: 5.39. In the case of TKKR it was not above 0.25; in that of YEWY, not above 0.25; in that of IPDT, not above 0.25. The same measure for FNRH: not above 0.25; for NYDC: not above 0.25.

As for PNKH, the enrichment ratio was not above 0.25.

For PQIF, the enrichment ratio is not above 0.25. Turning to KNYR, the enrichment ratio was not above 0.25.

In the case of WGFF, the enrichment ratio was not above 0.25. Take LCKW: the enrichment ratio was not above 0.25. In the case of NLWG it was not above 0.25; in that of SMII, 2.88.

SQDI: the enrichment ratio is not above 0.25. In the case of FQIE, the enrichment ratio was not above 0.25. The same measure for WTGH: not above 0.25; for TVTQ: 1.59. In the case of QYTN it was not above 0.25. The same measure for MMMD: not above 0.25; for SCLK: 7.46. As to QHIH, the enrichment ratio is not above 0.25.

With LWRL, the enrichment ratio is not above 0.25. Turning to KQFS, the enrichment ratio was not above 0.25. In the case of DNYK, the enrichment ratio was not above 0.25. The same measure for MQKE: not above 0.25; for YVEL: not above 0.25. The same measure for HFLR: not above 0.25; for RARS: not above 0.25; for NEHY: not above 0.25. PCIC: the enrichment ratio is not above 0.25. The same measure for ISTF: not above 0.25; for HGAF: not above 0.25; for TNHV: not above 0.25. Regarding PYDF, the enrichment ratio is not above 0.25.

With IWQG, the enrichment ratio is not above 0.25. With HPPI, the enrichment ratio is not above 0.25. In the case of KPYK it was not above 0.25. For MVLL, the enrichment ratio amounted to 7.33.

PDGA: the enrichment ratio was not above 0.25. Consider PMVN, for which the enrichment ratio is not above 0.25.

Consider IVGP, for which the enrichment ratio was not above 0.25.

TEVS: the enrichment ratio is 8.74. The same measure for KTNM: not above 0.25. On to SEHI, for which the enrichment ratio is not above 0.25.

Consider VEQS, for which the enrichment ratio is not above 0.25. The same measure for SNKR: not above 0.25; for NRVD: not above 0.25; for LLFL: not above 0.25. With VEQV, the enrichment ratio is not above 0.25.

Regarding RQGL, the enrichment ratio was not above 0.25. Consider QRTR, for which the enrichment ratio was not above 0.25.

With ELPQ, the enrichment ratio was not above 0.25. For FHQK, the enrichment ratio was not above 0.25.

Turning to RIKE, the enrichment ratio amounted to 1.35.

For the variant KVAH, the enrichment ratio is not above 0.25. RSGS: the enrichment ratio is not above 0.25. As to AGTC, the enrichment ratio was 3.5.

As for EAFS, the enrichment ratio was not above 0.25. As to WTMS, the enrichment ratio was not above 0.25. In the case of LYEM, the enrichment ratio is not above 0.25. In the case of AHEL it was not above 0.25; in that of GQGT, not above 0.25; in that of PLFI, not above 0.25. On to SDDL, for which the enrichment ratio is not above 0.25. Turning to THGQ, the enrichment ratio is not above 0.25. Take HSIM: the enrichment ratio was 7.28.

As for DWHV, the enrichment ratio was not above 0.25.

Consider EIWQ, for which the enrichment ratio was not above 0.25.

As for VVPH, the enrichment ratio was not above 0.25. With GDIY, the enrichment ratio was not above 0.25. With KVRC, the enrichment ratio is not above 0.25.

Consider QFPS, for which the enrichment ratio was not above 0.25. In the case of SGRE it was not above 0.25. The same measure for DSFI: not above 0.25; for YIQL: 0.395.

Consider NHTL, for which the enrichment ratio stood at 0.608.

Turning to TVWE, the enrichment ratio was not above 0.25. Regarding MIAY, the enrichment ratio is not above 0.25. In the case of KLVD it was not above 0.25. The same measure for WWQS: not above 0.25. Take EMFV: the enrichment ratio is not above 0.25.

For SEQL, the enrichment ratio was 3.66.

In the case of NMNR, the enrichment ratio is not above 0.25. For the variant HDSR, the enrichment ratio was not above 0.25. In the case of QNWI it was not above 0.25; in that of HHAP, not above 0.25. In the case of AQRR, the enrichment ratio is not above 0.25.

As to TRIA, the enrichment ratio is not above 0.25. As to RCLH, the enrichment ratio is not above 0.25. The same measure for YIWN: not above 0.25.

Turning to HDCA, the enrichment ratio was not above 0.25.

With AISM, the enrichment ratio was found to be 15.9. In the case of KNCP it was not above 0.25; in that of HFDK, not above 0.25.

On to WDDK, for which the enrichment ratio is not above 0.25. Take GEIG: the enrichment ratio was not above 0.25. The same measure for QVCN: not above 0.25; for HKEP: not above 0.25.

For the variant ESKP, the enrichment ratio was not above 0.25.

Regarding IPIG, the enrichment ratio was not above 0.25. Regarding FQFN, the enrichment ratio was not above 0.25. With MRLP, the enrichment ratio was not above 0.25. The same measure for GPWH: not above 0.25; for SPMC: not above 0.25.

With KQAT, the enrichment ratio is not above 0.25. As to KMGP, the enrichment ratio was not above 0.25. For the variant KRHL, the enrichment ratio is not above 0.25. In the case of YVAP it was not above 0.25; in that of GDQF, not above 0.25. In the case of WCFL it was not above 0.25. In the case of MGMF it was not above 0.25; in that of GIMA, 7.88; in that of THNA, 5.83. On to IWYV, for which the enrichment ratio is not above 0.25. In the case of QIIQ, the enrichment ratio is not above 0.25.

LAND: the enrichment ratio was not above 0.25. In the case of TQDQ it was not above 0.25; in that of SDYL, not above 0.25.

For the variant TMFD, the enrichment ratio was not above 0.25. In the case of QMYM it was not above 0.25; in that of ISGV, not above 0.25; in that of QHNH, 13.9. As for EKSS, the enrichment ratio is not above 0.25. In the case of QAHT it was not above 0.25; in that of HNVH, not above 0.25; in that of IGWQ, not above 0.25. In the case of LRAT, the enrichment ratio is not above 0.25. With ANCF, the enrichment ratio was determined as 6.31. The same measure for TVQT: 3.76. Take ADCA: the enrichment ratio was not above 0.25.

In the case of RPMN, the enrichment ratio is not above 0.25.

For WIVP, the enrichment ratio is not above 0.25. The same measure for TFNC: 2.85; for HFSG: not above 0.25; for VLCE: not above 0.25. The same measure for YKWM: not above 0.25. The same measure for FNWQ: not above 0.25. As for YDVV, the enrichment ratio is not above 0.25. As to TGPI, the enrichment ratio is not above 0.25. In the case of LMQG, the enrichment ratio was not above 0.25.

Consider NDHA, for which the enrichment ratio is not above 0.25.

Consider FHEP, for which the enrichment ratio was not above 0.25. In the case of SNGY it was 12.6; in that of DSFP, 0.618. Take TMVN: the enrichment ratio is not above 0.25.

Consider ESYV, for which the enrichment ratio is not above 0.25.

In the case of SEPI, the enrichment ratio is not above 0.25. The same measure for QRAY: not above 0.25. Regarding HMLS, the enrichment ratio is not above 0.25. In the case of WQDV it was not above 0.25. In the case of QYNV it was not above 0.25; in that of HYVG, not above 0.25. Consider QTEF, for which the enrichment ratio is not above 0.25.

With EITR, the enrichment ratio was not above 0.25. For NSPL, the enrichment ratio was not above 0.25. Consider IGQG, for which the enrichment ratio is not above 0.25. Consider HMWY, for which the enrichment ratio was not above 0.25. With VTCI, the enrichment ratio is 1.04.

In the case of ATRG, the enrichment ratio is not above 0.25.

Consider RLLE, for which the enrichment ratio amounted to 0.261. In the case of FWTC, the enrichment ratio was not above 0.25.

Regarding RNER, the enrichment ratio is not above 0.25. The same measure for HSKQ: not above 0.25; for QYRE: not above 0.25; for HTHP: not above 0.25. In the case of YTAV it was not above 0.25. In the case of DKVC it was not above 0.25; in that of LRML, not above 0.25. Consider KKTK, for which the enrichment ratio was not above 0.25. In the case of INLQ, the enrichment ratio was not above 0.25. In the case of AYPF it was not above 0.25.
